In the RNAGym collection of RNA variant scans (doi:10.1093/nar/gkz1192) one finds self-cleavage data, which are given here for 34 variants.

Sequences and labels used below:
B1: CPEB3 Ribozyme (parent)
chain: UAACAGGGGGCCACAGCAGAAGCGUUCACGUCGCAGCCCCUGUCAGAUUCUGGUGAAUCUGCGAAUUCUGCUGUAUAUCUC

Read counts are not given, so values of variants with three or more changes are uncertain.

The variants in this series derive from B1. Kind of series: self-cleavage, relative activity (ratio to wild type); higher = more cleavage; in vitro, sequencing. In a few lines:
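Relative activity was defined as the cleaved/total read fraction for a variant divided by the same fraction for the unmutated ribozyme. CPEB3 self-cleaving ribozyme libraries were made by rounds of error-prone PCR, barcoded, and transcribed in vitro with T7 RNA polymerase for 5 hours at 37°C, and cleavage ran through transcription plus a 15 min DNase I step before EDTA. Illumina sequencing of template-switched reverse transcripts gave the reads, and DNA sequencing mapped the barcodes. Averages come from three batches, using variants with at least 5 reads.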
On to UAACAGGGGGCCACGGCAGUAGCGUUCACGUCGCAGCCCCUGUCAGAUUCUGGCGAAUCUGCGAAUUCCGCUGUAUAUCCC [A15G A20U U54C U69C U80C], for which the self-cleavage came to 0.16.
The result for UAACAGGGGGCCACGGCAGACGAGUUCACGUCGCAGCCCCCGUCAGAUUCUGGUGAAUCUGCGAAUUCUGCUGUAUAUCUC [A15G A21C C23A U41C] reads 0.37.
On to UAACAGGGGGCCACGGCAGUAGCGUUCACGUCGCAGCCCCUGUCAGAUUCUGAUGAAUCUGCGAAUUCUGCUGCAUAUCUC [A15G A20U G53A U74C], for which the self-cleavage is 0.19.
Consider UAACAGGGGGCCACGGCAGGAGCGUCCACGUCGCAGCCCCUGUCAGAUUCUGGUGAAUCUGCGAAUUCAGCUGUAUAUCUC [A15G A20G U26C U69A], for which the self-cleavage worked out at 0.05.
For the variant UAACAGGGGGCCACGGCAGAGGCGUUCGCGUCACAGCCCCUGUCAGAUCCAGGUGAAUCUGCGAAUUCUGCCGUAUAUCUC [A15G A21G A28G G33A U49C U51A U72C], the self-cleavage turned out to be 0.04.
UAACAGGGGGCCACGGCAGAGGCGUUCACGUCGCGGCCCUUGUCAGAUUCUGGUGGAUCUGCGAAUUCUGCUGUAUAUCUC [A15G A21G A35G C40U A56G]: the self-cleavage is 0.13.
As for UAACAGGGGGCCACGGCAGUAGCGUUCACGUCGCAGCCCCUGUCAGAUUCUGGUGAAUCUGCGAAUUCUGCUGUAUAUAUC [A15G A20U C79A], the self-cleavage turned out to be 0.8.
As to UAACAGGGGGCCACGGCAGUUGCGUCCACGUCGCAGCCCCUGUCGGAUUCUGGUGGAUCUGCGAGUUCUGCUGUAUAUCUC [A15G A20U A21U U26C A45G A56G A65G], the self-cleavage was 0.14.
The result for UAACAGGGGGCCACGGCAGUAGCGUUCACGUCGCAGCCCCAGUCAGAUGCCGGUGAAUCUGCGAAUUCUGCUGUAUAUCUC [A15G A20U U41A U49G U51C] reads 0.39; that for UAACAGGGGGCCACGGCAGGAGCGUUCACGUCGCAGCCCCUGUCAGAUUCUGGUGAACCUGCGAAUUCUGCGGUAUAUCUC [A15G A20G U58C U72G], 0.11.
The result for UAACAGGGGGCCACGGCAGGAGCGUUCACGUCGCAGCCCCUGUCAGAUUCUGGUGAAUCUGCGAAUUCUGCUGUAUAUCGC [A15G A20G U80G] reads 0.85; that for UAACAGGGGGCCACGGCAGACGCGUUCACGUCGCAGCCCCUGUCAGAUUCUGGUGGAUCUGCGAAUUCAGCUGUAUAUCUC [A15G A21C A56G U69A], 0.28; that for UAACAGGGGGCCACGGCAGACGCGCUCACGUCGCAGCCCCUGUCAGAUUCUGGUGAAUCUGCGAAUUCUGCUGUACAUCUC [A15G A21C U25C U76C], 0.26.
Take UAACAGGGGGCCACGGCAGGAGCGCUCACGGCGCAGCCCCUGUCAGAUUCUGGUGAAUCUGCGAAUUCUGCUGUAUAUCUC [A15G A20G U25C U31G]: the self-cleavage worked out at 0.
For UAACAGGGGGCCACGGCAGAGGCGUUCACGUCGCAGCCCCUGUCCGAUUCUGGUGAAUCUGCGAAUUCUGCUGUAUAUCUC [A15G A21G A45C], the self-cleavage was 0.37.
In the case of UAACAGGGGGCCACGGCAGAGGCGUUCACGUCGCAGCCCCUGUCGGAUUCUGGUGAAUCUGCGAAUUCUGCUGUAUAUCUC [A15G A21G A45G], the self-cleavage stood at 0.43.
The result for UAACAGGGGGCCACGGCAGACGCGCUCUCGUCGCAGCCCCUGUCGGAUUCUGGUGAAUCUGCGAAUUCUGCUGUAUAUCUC [A15G A21C U25C A28U A45G] reads 0.4.
The result for UAACAGGGGGCCACGGCAGUAGCGUUCACGUCACAGCCCCUGUCAGAUUCUGGUGAAUCUGCGAAUUCUGCUGUAUAUCUC [A15G A20U G33A] reads 0.18; that for UAACAGGGGGCCACGGCAGUAGCGUUCACGUCGCAGCCCCUGUCAGAUUCUGGUGAAUCCGCGAAUUCUGCUGUAUAUCUC [A15G A20U U60C], 0.29.
For UAACAGGGGGCCACGGCAGAGGCGUUCACGUCGCGGCCCCUGUCUGAUUCUGGUGAAUCUGCGAAUUCAGCUGUGUAUCUC [A15G A21G A35G A45U U69A A75G], the self-cleavage worked out at 0.24.
The result for UAACAGGGGGCCACGGCAGGAGCGUUCACGUCGCAGCCCCUGUCAGAUUCAGGUGAAUCUGCGAAUUCUGCUGUAUAUCUC [A15G A20G U51A] reads 0.53; that for UAACAGGGGGCCACGGCAGGAGCGUACACGUCGCAACCCCUGUCAGAUUCUAGUGAAUCCGCGAAUUCUGCUGUAUAUCUC [A15G A20G U26A G36A G52A U60C], 0.06.
The result for UAACAGGGGGCCACGGCAGGAGCGCUCACGUCGCAGCCCCUGUCAGAUUCUGGUGAAUCUGCGAACUCUGCUGUAUAUCUC [A15G A20G U25C U66C] reads 0.08; that for UAACAGGGGGCCACGGCAGGAGCGUUCACGCCGCAGCCCCUGUCAGAUUCUGGUGAAUCUGCGAACUCUGCUGUAUAGCUC [A15G A20G U31C U66C U78G], 0.15.
The result for UAACAGGGGGCCACGGCAGAGGCGUUCGCGUCGCAGCCCCUGUCAGAUUCUGGUGAGUCAGCGAAUUCUGCUGUAUAUCUC [A15G A21G A28G A57G U60A] reads 0.1; that for UAACAGGGGGCCACGGCAGUAGCGUUCACGUCGCAGUCCCUGUCAGAUUCUGGUGACUCCGCGAAUUCUGCUGUAUAUCUC [A15G A20U C37U A57C U60C], 0.14.
As to UAACAGGGGGCCACGGCAGGAGCGUUCACGUCGCAGCCCCUGUCAGAUUCUAGUGAAUCUGCGAAUACUGCUGUAUAUCUC [A15G A20G G52A U67A], the self-cleavage was found to be 0.36.
With UAACAGGGGGCCACGGCAGGAGCGUUCACGUCGCAGCCCCUGACAGAUCCUGGUGAUUCUGCGAAUUCUGCUGUAUAUCUC [A15G A20G U43A U49C A57U], the self-cleavage turned out to be 0.14.
On to UAACAGGGGGCCACGGCAGUAGCGUUCACGUCGCAGCCCCUGACAGAUUCUGGUGAAUCUGCGAAUUCUGCUGUAUAUCUC [A15G A20U U43A], for which the self-cleavage was found to be 0.25.
UAACAGGGGGCCACGGCAGAGGCGUUCACGUCGCUGCCCCAGUCAGAUUCUGGUGUAUCUGCGAAUUCUGCUGUAUAUCUC [A15G A21G A35U U41A A56U]: the self-cleavage came to 0.16.
The result for UAACAGGGGGCCACGGCAGACGCGUUCACGUCGCAGCCCCUGGCGGAUUCUGGUGAAUCAGCGAAUUCUGCUGUAUAUCUC [A15G A21C U43G A45G U60A] reads 0.09; that for UAACAGGGGGCCACGGCAGGAGCGUUCACGUCGCAGCCCCGGUCAGAUUCUGGUGAAUCUGCGAAUUCCGCUGUAUAUCUC [A15G A20G U41G U69C], 0.33; that for UAACAGGGGGCCACGGCAGUAGCGUUCACGUCGCUGCCCCUGUCAGAUUCUGGUGAAUCUGCGAAUUCUGCUGUAUAUCUC [A15G A20U A35U], 0.14.
The result for UAACAGGGGGCCACGGCAGGAGCGUACACGUCGCAGCCCCCGACAGACUCUGGUGAAUCUGCGAAUUCUGCUGUAUAUCUC [A15G A20G U26A U41C U43A U48C] reads 0.05.
